In the supplement of paper PMC12217912:
Some of the results follow. Sequences were assembled here from the parent chain. Values near 0.05 are background.

B1: TEV protease; numbered along this chain (parent)
chain: MGESLFKGPRDYNPISSSICHLTNESDGHTTSLYGIGFGPFIITNKHLFRRNNGTLVVQSLHGVFKVKDTTTLQQHLVDGRDMIIIRMPKDFPPFPQKLKFREPQREERICLVTTNFQTKSMSSMVSDTSCTFPSGDGIFWKHWIQTKDGQCGSPLVSTRDGFIVGIHSASNFTNTNNYFTSVPKNFMELLTNQEAQQWVSGWRLNADSVLWGGHKVFMVKPEEPFQPVKEATQL

Variants of: B1
Assay: raw area under fraction-flipped curve 0-4 h after induction (AUC4h, not background-subtracted), DNA-recorder readout of cleavage of the substrate (dimensionless); higher = more cleavage of the substrate by the protease variant
Conditions: temperature: 34 °C; time window: 0-4 h after rhamnose induction
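Also: Bxb1 expression induced with 0.2% (w/v) L-rhamnose at OD600 near 0.5, cultures sampled hourly, flipped fraction per protease–substrate barcode pair counted by paired-end Illumina sequencing.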

## MGESLFKGPRDYNPISSSICHLTNESDGHTTSLYGIGFGPFIITNKHLFRRNNGTLVVQSLHGVFKVKDTTTLQQHLVTGRDMIIIRMPKDFPPFPQKLKFREPQREERICLVTTNFQTKSMSSMVSDTSCTFPSGDGIFWKHWIQTKDGQCGSPLVSTRDGFIVGIHSASNFTNTNNYFTSVPKNFMELLTNQEAQQWVSGWRLNADSVLWGGHKVFMVKPEEPFQPVKEATQL [D79T]
  area with substrate ENLYFHS: 0.0667
  area with substrate ENLYFIS: 0.0534
  area with substrate ENLYFKS: 0.0568
  area with substrate ENLYFLS: 0.0457
  area with substrate ENLYFPS: 0.0121
  area with substrate ENLYFSS: 0.0707
  area with substrate ENLYFTS: 0.052
  area with substrate ENLYFYS: 0.0438

## MGESLFKGPRDYNPISSSICHLTNESDGHTTSLYGIGFGPFIITNKHLFRRNNGTLVVQSLHGVFKVKDTTTLQQHLVDGRDMIIIRMPKDFPPFPQKLKFREPQREERICLVTTNFQTKSMSSMVSDTSCTFPSGDGIFWKHWIQTKDGQCGSPLVSTRDGFIVGIHSTSNFTNTNNYFTSVPKNFMELLTNQEAQQWVSGWRLNADSVLWGGHKVFMVKPEEPFQPVKEATQL [A170T]
  area with substrate ENLYFHS: 0.0417
  area with substrate ENLYFIS: 0.0564
  area with substrate ENLYFTS: 0.0588

## MGESLFKGPRDYNPISSSICHLTNESDGHTTSLYGIGFGPFIITNKHLFRRNNGTLVVQSLHGVFKVKDTTTLQQHLVDGRDMIIIRMPKDFPPFPQKLKFREPQREERICLVTTNFQTKSMSSMVSDTSCTFPSGDGIFWKHWIQTKDGQCGSPLVSTRDGFIVGIHSASNFTNTNNYFTSVPKNFMELLTNQEAQQWVSGWRLNADSVLWGGHKVFMVKPEEPFQPVKEATQE [L235E]
  area with substrate ENLYFIS: 0.0713
  area with substrate ENLYFLS: 0.059
  area with substrate ENLYFMS: 0.0709
  area with substrate ENLYFNS: 0.0594
  area with substrate ENLYFPS: 0.0675
